Where a chain is given by its changes, count along the chain named. Names and notes keep the numbering of the source.
B1: AS15193VH18_HCAb (Fc fusion)
heavy: EVQLVESGGGLVQPGGSLRLSCAVSGNIYNRNFMGWFRQAPGKGREGVSAIYTGTSRTYYADSVKGRFTISRDNAKNTVYLQMNSLRPEDTAVYYCAADLRDGFWDTGVWNTWGQGTLVTVSS[human IgG4 Fc with S228P (EU numbers) skipped]
notes: humanized sdAb fused to human IgG4 Fc (S228P) through the hIgG4 hinge; made in CHO cells
B2: AS15193VH8M1_HCAb (Fc fusion)
heavy: B1 heavy with R45L, A75S, P88A, D102E
notes: as for B1
B3: AS15193VH8_HCAb (Fc fusion)
heavy: B1 heavy with R45L, A75S, P88A
notes: as for B1
B4: AS15193VH18M1_HCAb (Fc fusion)
heavy: B1 heavy with D102E
notes: as for B1
B5: AS15193_HCAb (Fc fusion)
heavy: QIQLVESGGGSAQAGGSLRLSCVVSGNIYNRNFMGWFRQAPGKVREGVAAIYTGTSRTYYADSVKGRFTISQDNAKNTVYLQMNSLKPEDTAMYYCAADLRDGFWDTGVWNTWGQGTQVTVSS[human IgG4 Fc with S228P (EU numbers) skipped]
notes: sdAb fused to human IgG4 Fc (S228P) through the hIgG4 hinge; made in CHO cells; also called parent HCAb; parental HCAb
B6: AS15152_HCAb (Fc fusion)
heavy: QMQLVESGGGSVQAGGSLRLSCAVSGYIYNRNFMGWFRQAPGKEREGVAAIYTGGPYTYYTDSVQGRFTISQDNTKNTVYLQMNSLKPEDTAMYYCVSDLSDGTWDQGRWNYWGQGTQVTVSS[human IgG4 Fc with S228P (EU numbers) skipped]
notes: sdAb fused to human IgG4 Fc (S228P) through the hIgG4 hinge; made in CHO cells
B7: AS15156_HCAb (Fc fusion)
heavy: B5 heavy with I2V, V23A, N27Y, A40V, S56E, A97V, F104T
notes: as for B6
B8: AS06962_HCAb (Fc fusion)
heavy: QVHLVDSGGGLVQPGGSLRLSCAASGSITSRNTMGWYRQVPGKQRELVALIATFVTHYADSVKGRFTISRDNARKMVFLEMNSLQPEDTGAYYCYVDVSPYWGRGTQVTVSS[human IgG4 Fc with S228P (EU numbers) skipped]
notes: as for B6
B9: AS15881_HCAb (Fc fusion)
heavy: QVQLVESGGGSVQAGGSLRLSCAASGFTDSSYCGAWFRQVPGKEREGVAIIDRYGGTMYKDSVKGRFTISKDTAKNILYLQMNSLKLEDTAMYYCAAAEYRGSSCDAESGYWGQGTQVTVSS[human IgG4 Fc with S228P (EU numbers) skipped]
notes: as for B6
B10: AS15883_HCAb (Fc fusion)
heavy: B9 heavy with Q3H, V5M, R19T, G26V, S31N, G34M, E99G, E108D
notes: as for B6
B11: AS15892_HCAb (Fc fusion)
heavy: B9 heavy with V2I
notes: as for B6
B12: AS15899_HCAb (Fc fusion)
heavy: QVQLVESGGGSVQAGGSLRLSCAASGYTAGSLCMGWFRQAPGKEREGVAAIYTGGGSTYYADSVKGRFTISQDNAKNTVYLQMNSLKPEDTAQYYCGAGSREDYCDRGYIYDHWGQGTQVTVSS[human IgG4 Fc with S228P (EU numbers) skipped]
notes: as for B6
B13: AS25170_HCAb (Fc fusion)
heavy: QVKLVESGGGLVQSGGSLRLSCAVSGSGYSYSRGCFAWFQQRPGKEREGVAIINMDGHTMYSDLAQGRFIISQDKAKNTLYLQMNSLKPDDTAMYYCAYDRDQCYVLRDRLRLPDTFNDWGQGTQVTVSS[human IgG4 Fc with S228P (EU numbers) skipped]
notes: as for B6

These binders were tested against T1, human PD-1 expressed on cells (human, UniProt Q15116 25-288) (assay: flow cytometry (FACS) on CHO cells expressing PD-1).
T1 construct: also called PD-1 expressed on CHO cells; CHO cells expressing human PD-1
B1: binds.
B2: binds.
B3: binds.
B4: binds.
B5: binds.

The binders below were run against T2, human PD-1-His antigen (human, UniProt Q15116 in part, limits assumed) (assay: SPR (Biacore T200), HCAb captured through Fc, PD-1-His as analyte).
T2 construct: also called Antigen PD-1-His protein; not shown: His tag
B1: binds.
B2: binds.
B3: binds.
B4: binds.

The binders below were run against T2, human PD-1-His antigen (assay: SPR (Biacore T200), HCAb captured through Fc, human PD-1-His as analyte).
T2 sequence (Q15116 25-170 limits assumed): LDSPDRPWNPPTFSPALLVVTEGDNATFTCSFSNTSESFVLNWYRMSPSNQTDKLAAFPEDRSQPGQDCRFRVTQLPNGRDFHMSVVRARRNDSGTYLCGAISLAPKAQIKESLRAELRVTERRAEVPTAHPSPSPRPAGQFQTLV
B6: binds.
B7: binds.
B5: binds.
B8: binds.
B9: binds.
B10: binds.
B11: binds.
B12: binds.
B13: binds.
